{"source": "PubChem BioAssay AID662", "about": "(National Center for Advancing Translational Sciences (NCATS), 2007)", "note": "Screen size: about 71,000 compounds; about 1,800 (2.5%) were called active. This list was built around the results that the source calls inconclusive (neither active nor inactive); the mix of calls is not that of the screen. The call rests on the fitted dose curve; in most records, active means well fitted activation curve with a large enough effect in the signal ratio, with a control signal flat (not every such curve was filed as active); inconclusive means small, poorly fitted or top-dose-only effect, or effect the other way, or a change in a side signal; inactive means flat fitted curve, though single readings scatter; the % refers to the signal ratio. Potencies of inconclusive entries are doubtful fits and often do not repeat. Potency means the concentration at half of the fitted maximal effect; tags describe the fitted curve by direction and shape.", "data": [{"experiment": "Cell signaling CRE-BLA (Fsk stim); on activity change, negative = inhibition: % of control where 0% means no effect", "conditions": "CHO CRE-bla reporter (cAMP response element driving beta-lactamase), forskolin EC10, beta-lactamase ratio; activity change, negative = inhibition: at 38.2 µM (top of the series) unless noted", "how_it_was_run": "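Using CellSensor CRE-bla CHO cells in Opti-MEM with 0.5% dialyzed FBS, compounds were titrated with EC10 NKH 477 for 3 h at 37 °C. CCF4 ratio (460/530 nm) gave %Activity; AC50 derived.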", "values": [{"smiles": "COc1ccc(Cc2n[nH]c(=O)c3ccccc23)cc1OC", "Potency": "inconclusive: 12.6 µM [rising, single point]"}, {"smiles": "COC(=O)[C@@H]1C[C@H]1[C@@H](NC(=O)Oc1ccc(F)cc1)c1ccccc1", "activity change, negative = inhibition": "inactive: -20.6%"}, {"smiles": "COc1cc(-c2nnc3sc(-c4cccnc4)nn23)cc(OC)c1OC", "Potency": "inconclusive: 10 µM [rising, partial curve]"}, {"smiles": "CCc1nc(-c2ccc(-c3ccc(OC)cc3)nc2OC)no1", "Potency": "inconclusive: 10 µM [rising, single point]"}, {"smiles": "Cc1ccc(NC(=O)c2noc3c2CCCCC3)cc1", "activity change, negative = inhibition": "inactive: -19.1%"}, {"smiles": "N#Cc1c(N)nc(SCC(=O)OCc2ccccc2)c(C#N)c1-c1ccco1", "Potency": "active: 12.6 µM"}, {"smiles": "O=C1c2ccccc2C(Nc2ccc(F)c(Cl)c2)N1Cc1ccco1", "note": "(stereo unspecified)", "activity change, negative = inhibition": "inconclusive: -18.2%"}, {"smiles": "CCOc1ccc2[nH]c(=O)c(CN(Cc3ccco3)Cc3nnnn3Cc3ccccc3)cc2c1", "Potency": "inconclusive: 25.1 µM [rising, single point]"}, {"smiles": "CCc1nc(N2CCCC2C(=O)O)c2oc3ccccc3c2n1", "note": "(stereo unspecified)", "activity change, negative = inhibition": "inconclusive: 17.1%"}, {"smiles": "COc1ccc(Nc2nc(N3CCCCC3)nc(N3CCCCC3)n2)c(OC)c1", "Potency": "inconclusive: 0.794 µM [rising, single point]"}, {"smiles": "CCOc1ccc(/C(O)=C2\\C(=O)C(=O)N(CCN(C)C)C2c2cc(OC)ccc2OC)cc1Cl", "note": "(stereo unspecified)", "activity change, negative = inhibition": "inconclusive: -12.9%"}, {"smiles": "CCN(CC)c1nc(C#N)cc(-c2ccc(OC)cc2)n1", "Potency": "active: 12.6 µM"}, {"smiles": "Cc1cccc2cc(CN(CC3CCCO3)C(c3nnnn3Cc3ccco3)C(C)C)c(=O)[nH]c12", "note": "(stereo unspecified)", "activity change, negative = inhibition": "inactive: -2.53%"}, {"smiles": "COc1ccc(C(=O)N2CCC3(CCCN(c4ccccc4)C3)CC2)cc1", "activity change, negative = inhibition": "inactive: 5.83%"}, {"smiles": "Cc1ccc(CN2C(=O)CCC2C(=O)NCCCN2CCCCC2C)cc1", "note": "(stereo unspecified)", "Potency": "inconclusive: 0.0794 µM [falling, full curve, poor fit]"}, {"smiles": "Cc1nc(N2CCCC2C(=O)O)c2oc3ccccc3c2n1", "note": "(stereo unspecified)", "activity change, negative = inhibition": "inactive: 14.5%"}, {"smiles": "CCOC(=O)N1CCN(C(=O)CSc2nc3ccccc3c(=O)n2-c2ccccc2)CC1", "activity change, negative = inhibition": "inconclusive: 19.7%"}, {"smiles": "c1ccc(CNc2nc(-c3ccc4c(c3)OCO4)nc3ccccc23)cc1", "activity change, negative = inhibition": "inactive: 7.1%"}, {"smiles": "N#Cc1c(N)nc(-c2ccccc2)nc1-c1ccccc1", "Potency": "inconclusive: 2 µM [rising, partial curve]"}, {"smiles": "O=C(c1csnn1)N1CCC2(CCCN(c3ncccn3)C2)CC1", "activity change, negative = inhibition": "inactive: -0.00515%"}, {"smiles": "O=S(=O)(Nc1ccc(-c2nc3ccccc3o2)cc1)c1ccccc1", "activity change, negative = inhibition": "inactive: 5.72%"}, {"smiles": "O=c1c2ccccc2nnn1CSc1nnc(-c2ccc3c(c2)OCO3)o1", "Potency": "inconclusive: 5.01 µM [rising, single point]"}, {"smiles": "O=c1cnc2cnc(N3CCOCC3)nc2n1Cc1ccc(F)cc1", "activity change, negative = inhibition": "inconclusive: 11.4%"}, {"smiles": "C=CCOc1ccc(/C(O)=C2/C(=O)C(=O)N(CCCn3ccnc3)C2c2cccs2)cc1", "note": "(stereo unspecified)", "activity change, negative = inhibition": "inconclusive: 18.3% [at 7.6 µM]"}, {"smiles": "CC(=O)c1c(C)[nH]c(C(=O)OCn2nnc3ccccc3c2=O)c1C", "Potency": "inconclusive: 2.51 µM [rising, partial curve]"}, {"smiles": "Cc1nc(SCC(=O)NCC2CCCO2)c2oc3ccccc3c2n1", "note": "(stereo unspecified)", "Potency": "active: 10 µM"}, {"smiles": "Cc1ccc(S(=O)(=O)N[C@H](CO)C(=O)O)cc1", "activity change, negative = inhibition": "inconclusive: -1.12% [at 7.6 µM]"}, {"smiles": "CN(C)c1ccc(-c2cc(Nc3ccc(F)cc3)ncn2)cc1", "Potency": "inconclusive: 10 µM [rising, partial curve]"}, {"smiles": "CCSc1nnc(NC(=O)C2(C)Cc3ccccc3C(=O)O2)s1", "note": "(stereo unspecified)", "activity change, negative = inhibition": "inconclusive: 14.7%"}, {"smiles": "Cc1cccn2c(=O)c3cc(C#N)c(=NC(=O)c4cccnc4)n(CC4CCCO4)c3nc12", "note": "(stereo unspecified)", "Potency": "inconclusive: 3.98 µM [rising, full curve]"}, {"smiles": "Cc1nccn1S(=O)(=O)c1ccc(Br)cc1Br", "activity change, negative = inhibition": "inconclusive: -23.4%"}, {"smiles": "Cn1c(=O)c(-c2ccc(F)c(F)c2)nc2cncnc21", "Potency": "inconclusive: 10 µM [rising, partial curve]"}, {"smiles": "C[n+]1cc2c3c(ccc2c2ccc4cc5c(cc4c21)OCO5)OCO3", "Potency": "inconclusive: 5.01 µM [rising, partial curve]", "activity change, negative = inhibition": "inconclusive: -10.8% [at 17.1 µM]"}, {"smiles": "CC1CCN(C(=O)CSc2nc(N)c3c4c(sc3n2)CN(C)CC4)CC1", "activity change, negative = inhibition": "inconclusive: -10.3%"}, {"smiles": "Cc1ccc(S(=O)(=O)C(C#N)c2nc3ccccc3nc2N2CCCC2)cc1C", "note": "(stereo unspecified)", "activity change, negative = inhibition": "inconclusive: 28.5%"}, {"smiles": "COc1ccc(C(=O)CSc2nc3nc(C)cc(C)c3c(=O)[nH]2)cc1OC", "Potency": "active: 2.51 µM"}, {"smiles": "COCCNC(=O)CS(=O)Cc1nc(-c2ccc(Cl)cc2)oc1C", "note": "(stereo unspecified)", "activity change, negative = inhibition": "inconclusive: 29.7%"}, {"smiles": "CCCC(=O)N(c1ccc2oc(=O)sc2c1)S(=O)(=O)c1cccs1", "activity change, negative = inhibition": "inactive: -3.92%"}, {"smiles": "C=CCn1c(SCC(=O)Nc2cc3oc4ccccc4c3cc2OC)nnc1-c1cnccn1", "Potency": "inconclusive: 5.01 µM [rising, partial curve]"}, {"smiles": "CCC(C)NC(=O)c1cn(C)c(=O)c2cc(OC)c(OC)cc12", "note": "(stereo unspecified)", "Potency": "active: 3.16 µM"}, {"smiles": "CC(C)c1ccc(OCc2ccc(C(=O)N3CCN(c4ccccn4)CC3)cc2)cc1", "Potency": "inconclusive: 3.16 µM [rising, single point]"}, {"smiles": "CC1CCc2c(sc3ncn4c(SCC(=O)NCc5ccco5)nnc4c23)C1", "note": "(stereo unspecified)", "activity change, negative = inhibition": "inactive: 5.85%"}, {"smiles": "O=C(Nc1ccn(Cc2ccc(Cl)cc2)n1)c1ccc2c(c1)OCO2", "activity change, negative = inhibition": "inconclusive: -3.58%"}, {"smiles": "Nc1ccc(-c2n[nH]c(=O)c3ccccc23)cc1N", "Potency": "active: 2.51 µM"}, {"smiles": "CCOC(=O)c1c(C)[nH]c(C(=O)CN2CC(C)OC(C)C2)c1C", "note": "(stereo unspecified)", "Potency": "inconclusive: 10 µM [rising, partial curve]"}, {"smiles": "CCCn1c(=N)c(C(=O)NCC2CCCO2)cc2c(=O)n3cccc(C)c3nc21", "note": "(stereo unspecified)", "Potency": "active: 12.6 µM"}, {"smiles": "Cc1ccc2c(CC(=O)OC(C)C(=O)NCc3ccc4c(c3)OCO4)coc2c1", "note": "(stereo unspecified)", "activity change, negative = inhibition": "inactive: 0.826%"}, {"smiles": "COC(=O)c1[nH]c2cccc(OC)c2c1NC(=O)CN1CCC(C(N)=O)(N2CCCCC2)CC1", "activity change, negative = inhibition": "inconclusive: 0.56%"}, {"smiles": "C[C@@H](C(=O)NCCc1c[nH]c2ccccc12)[C@H]1C[C@]1(C)[C@H](NC(=O)OCc1ccccc1)c1ccccc1", "activity change, negative = inhibition": "inconclusive: -3.44%"}, {"smiles": "CCOC(=O)C1=C(C)N(C)C(C)=C(C(=O)OCC)C1c1cccnc1", "activity change, negative = inhibition": "inconclusive: 27.6%"}]}]}
